The record followed here is PMC4242493.

The other results are listed elsewhere or left out. The list includes weakly bound sequences.

The test deals with MaxL homodimer (UniProt P61244). As to the kind of experiment: universal protein-binding microarray (PBM). Conditions: PBS-based mixture, 10 nM His-tagged protein dimer, 2% milk, 200 ng/uL BSA, 50 ng/uL salmon testes DNA, 0.02% TX-100; detection with Alexa 488 anti-His …; high values mean tight binding; most listed sequences are background and not binding sites; double strand, one strand shown.
UniProt P61244, sequence (P61244 whole entry): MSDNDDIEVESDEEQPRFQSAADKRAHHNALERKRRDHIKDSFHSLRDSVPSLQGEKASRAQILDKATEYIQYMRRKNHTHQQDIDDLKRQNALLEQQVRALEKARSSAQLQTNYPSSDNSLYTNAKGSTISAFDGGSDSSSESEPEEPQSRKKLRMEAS
For the sequence CCCACAAA, the binding signal (normalized occupancy) is 0.075. The value for TCATTTAA was 0.0823; that for TACATATA was 0.0865. Under AAATCAAG stands 0.0746. For CTCAAAAC, the binding signal (normalized occupancy) worked out at 0.0752. As to GGCCACCC, the binding signal (normalized occupancy) worked out at 0.0757.

As to ATACGTCG, the binding signal (normalized occupancy) was found to be 0.0848. The value for CATTAGAC was 0.0749.

With TGAATAAA, the binding signal (normalized occupancy) was determined as 0.0814. Under GGCAGAAA stands 0.0684; under ATGGATCC, 0.0823; under AGAGAGGA, 0.0724. Under CAGACTGA stands 0.0693; under TCGAGTAA, 0.0728; under CCGAGACG, 0.0692.

CAGGAATC: the binding signal (normalized occupancy) was 0.0782. Under AAAGGACG stands 0.0686; under GCAGGTTA, 0.0708; under ACATTTAC, 0.0798. Under GCCGAACA stands 0.0704; under AACCCTGC, 0.0705. Under AGCGATTG stands 0.0734; under ATGTCTTA, 0.0882.

On to AGACCTTA, for which the binding signal (normalized occupancy) is 0.0772. Under AGGGGGCC stands 0.0693. The value for CGACGAAG was 0.0714. The value for AATGACTC was 0.0783; that for AGACGCTA was 0.0657; that for AAGCGCCC was 0.0659. On to CAAAGTCC, for which the binding signal (normalized occupancy) turned out to be 0.0657. Under CATGCAGC stands 0.0946; under GCTAGGAA, 0.0727. Regarding CAAATGAC, the binding signal (normalized occupancy) came out at 0.0825. As for AAAGCCGC, the binding signal (normalized occupancy) amounted to 0.0669. The value for GTCGCTGA was 0.0755.

As for AAAACTTT, the binding signal (normalized occupancy) is 0.0676. The value for GTTTATGA was 0.0782; that for GAAGGGGC was 0.0757. Under AGAATTTC stands 0.0749; under TAGAGCAA, 0.0708; under ATCGGCTC, 0.0723. Turning to AGATCCAA, the binding signal (normalized occupancy) was 0.0706. The value for GGAAGTTA was 0.0752. The value for GGCAACCA was 0.0697; that for AAGGTCGC was 0.074.

AGTAAATG: the binding signal (normalized occupancy) came to 0.0734. Under CGTCGGTA stands 0.0699. Turning to AAGATACG, the binding signal (normalized occupancy) amounted to 0.072. Under CCCAGTGA stands 0.0723; under AACTCGGT, 0.0731; under AACTTATT, 0.0797. Under AATTCCGA stands 0.0729; under AAGGTGAG, 0.0742.

On to CAGGCTAG, for which the binding signal (normalized occupancy) turned out to be 0.0704. Turning to GCTTGGGA, the binding signal (normalized occupancy) is 0.0733.

As for CGATGTGC, the binding signal (normalized occupancy) is 0.0807. The value for CGGGCAAA was 0.0682; that for GGGCAATA was 0.081; that for ATACAAAT was 0.0878. On to ATTGAACA, for which the binding signal (normalized occupancy) is 0.0789. Regarding CCGCAGCC, the binding signal (normalized occupancy) is 0.0714. As to TCGGCTCA, the binding signal (normalized occupancy) turned out to be 0.0716. Under CGACAGAG stands 0.0711; under ATAGCATA, 0.0872; under CAGACTAG, 0.0708. As to GAGAAAGA, the binding signal (normalized occupancy) was 0.0693. The value for GCCACTTA was 0.0728.

AGTAGGTC: the binding signal (normalized occupancy) amounted to 0.0721. Under ATGAGTCG stands 0.0808; under ATAGGTCA, 0.0845.

Regarding ACTTTCTG, the binding signal (normalized occupancy) amounted to 0.0733. The value for CTTGCAGA was 0.0701. The value for CCCCTGGC was 0.0675; that for CCGGAGCC was 0.0668; that for CGTAAACG was 0.0704.

For CAGGATAA, the binding signal (normalized occupancy) stood at 0.0834. The value for TCCCGGGA was 0.0631; that for AAACTTCA was 0.0765; that for GAAATTAC was 0.0763. Under AGGTCTAT stands 0.08; under ACCTCGTA, 0.0827; under CCCCGTGC, 0.0948. Consider CTCTCCCC, for which the binding signal (normalized occupancy) came out at 0.0757.

Take CTGGGTCC: the binding signal (normalized occupancy) was determined as 0.0738. Under GACTACCA stands 0.0763; under AATCTCAT, 0.0816. The value for CACGCCTG was 0.0966. With TCCTCTAA, the binding signal (normalized occupancy) worked out at 0.075. Under CCGTAGAG stands 0.0713. Under TAACTTAA stands 0.0727. The value for TTAGGCAA was 0.0725; that for AGCCACGA was 0.0883. Consider CTTCCTTC, for which the binding signal (normalized occupancy) was found to be 0.0733. Take AATGTGCG: the binding signal (normalized occupancy) is 0.0957.

AAGTACAA: the binding signal (normalized occupancy) is 0.078. Under CTCGGGAC stands 0.0711; under GCTCCCCC, 0.0663. Under CATACTCC stands 0.085; under AAACCATA, 0.0792; under CAGACTGG, 0.0699. Under GTACTGGA stands 0.0747; under ACTACTAC, 0.075. Turning to AATGCGAT, the binding signal (normalized occupancy) came out at 0.0782.

Take CTTACAGC: the binding signal (normalized occupancy) came out at 0.0716. Regarding AAAGTTCG, the binding signal (normalized occupancy) was found to be 0.0662. The value for ATTCTAGA was 0.0727; that for ATGTAGGA was 0.0768. Take AACGCCTT: the binding signal (normalized occupancy) amounted to 0.0705. Under AGATACAA stands 0.0805. The value for AGGGACAC was 0.0687; that for AGGAATTG was 0.0797. The value for AATTCCAA was 0.0755; that for CATGTCCA was 0.0873. On to GCAAATCC, for which the binding signal (normalized occupancy) came to 0.0711. The value for TGCTAAAA was 0.0817; that for AGCTCTCC was 0.0744.

For AGGGCCCA, the binding signal (normalized occupancy) was found to be 0.0684. Under TAATTCCA stands 0.0791. For the sequence CTCGGTTA, the binding signal (normalized occupancy) was 0.0699. Regarding CCTACGGA, the binding signal (normalized occupancy) is 0.0694. The value for GTGCGATA was 0.0827.

As for CAACAGTC, the binding signal (normalized occupancy) worked out at 0.0718. The value for CCTAAGTC was 0.0703. The value for GCTATAAA was 0.0747; that for AAGTTCCC was 0.0683.

On to TCCTTAAA, for which the binding signal (normalized occupancy) was 0.0679.

TGCAGACA: the binding signal (normalized occupancy) is 0.0728. Under ATCTAGCG stands 0.0744; under CCGTAGCC, 0.0683; under CTAAATAG, 0.0735. The value for CCCCCGTC was 0.0826; that for AACCATAA was 0.081. Under AGTACGAA stands 0.0712; under ATGTGGGA, 0.0914; under AGCGTAGA, 0.0698.

Regarding CTATTAAC, the binding signal (normalized occupancy) amounted to 0.0779. In the case of GAGGCCCC, the binding signal (normalized occupancy) was determined as 0.0733. Turning to CACCAGGA, the binding signal (normalized occupancy) was 0.0715.

As for ACCTGGCG, the binding signal (normalized occupancy) is 0.0775. Under AACCAGAC stands 0.0734; under TAGAGATA, 0.0742; under CCACTTGC, 0.0746. Under CAAATCCC stands 0.0732; under CAGTTCCA, 0.0804; under GGCATTCA, 0.0765. Under ACCAAGAT stands 0.0752; under CCTGCGAG, 0.0694.

For the sequence GGTTGTGA, the binding signal (normalized occupancy) amounted to 0.0775. Under CTAATTCA stands 0.0768; under AAGATAAA, 0.0789. Under AGGCTCCA stands 0.0715. Regarding AATAAAGG, the binding signal (normalized occupancy) was found to be 0.075. The value for AAAATTAT was 0.0765. The value for GTGCGCTA was 0.0817. Under ACTAACTC stands 0.076; under AAAAAGAA, 0.0757; under ATTGCAAT, 0.0742. With AAAAGGTA, the binding signal (normalized occupancy) was determined as 0.074. The value for ACTGGGAG was 0.0717. Under ATTATCCG stands 0.077; under AAAGACTT, 0.0717; under CGTAATCC, 0.0766. Under GGCATGCA stands 0.109; under CCCGGTAA, 0.0715; under CGCGAAAG, 0.0692.

In the case of GATCAGAC, the binding signal (normalized occupancy) is 0.0753.

On to CAAAAACC, for which the binding signal (normalized occupancy) came to 0.0703. Under ATTAGAAA stands 0.0751; under GACAGGAC, 0.0719. The value for CCTGGGCC was 0.0723; that for AGCTAGCT was 0.0712. Consider AGTCTATC, for which the binding signal (normalized occupancy) is 0.0774.
